Experimental data from the supplement of paper PMC4604168 (melanoma cell lines).
Some of the results follow. Single values are uncertain, as repeats are few or missing.

test system: RPMI7951; test: cell count relative to DMSO control; melanoma cells; higher = more viable cells; details: library dose: low library concentration; 72 h
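Note: cell number obtained by counting DAPI-stained nuclei in high-throughput microscope images with image analysis software, screen run in 1,536-well plates.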

SMILES | cell count
Cn1c(Nc2ccc(C(F)(F)F)cc2)nc2cc(Oc3ccnc(-c4ncc(C(F)(F)F)[nH]4)c3)ccc21 + CCCCCCCCCCCC1=C(O)C(=O)C=C(O)C1=O [Embelin] (first compound 0.08 µM, partner dose 1.2 µM) | 66.1%
O=C(CCCCCCC(=O)Nc1ccccc1)NO [vorinostat] + O=C(O)C(=O)Nc1sc2c(c1C(=O)O)CCNC2 [TCS401] (first compound 0.08 µM, partner dose 1.66667 µM) | 84.2%
O=C(CCCCCCC(=O)Nc1ccccc1)NO [vorinostat] + CCc1ccc(CCOc2ccc(CC3SC(=O)NC3=O)cc2)nc1 [pioglitazone] (first compound 0.08 µM, partner dose 2 µM) | 94.1%
C#Cc1cccc(Nc2ncnc3cc(OCCOC)c(OCCOC)cc23)c1 [erlotinib] + O=C(Nc1ccccc1)c1cc([N+](=O)[O-])ccc1Cl [GW9662] (first compound 0.8 µM, partner dose 2 µM) | 106%
C#Cc1cccc(Nc2ncnc3cc(OCCOC)c(OCCOC)cc23)c1 [erlotinib] + Oc1nc(-c2ccc(C(F)(F)F)cc2)nc2c1CSCC2 [XAV939] (first compound 0.8 µM, partner dose 2 µM) | 87.9%
COCC[n+]1c2c(n(Cc3cnccn3)c1C)C(=O)c1ccccc1C2=O + CCc1ccc(CCOc2ccc(CC3SC(=O)NC3=O)cc2)nc1 [pioglitazone] (first compound 0.0004 µM, partner dose 2 µM) | 80%
Cn1c(Nc2ccc(C(F)(F)F)cc2)nc2cc(Oc3ccnc(-c4ncc(C(F)(F)F)[nH]4)c3)ccc21 + N#Cc1c(O)c2c(-c3ccc(-c4ccccc4O)cc3)csc2[nH]c1=O [A769662] (first compound 0.08 µM, partner dose 2 µM) | 67.3%
O=C(CCCCCCC(=O)Nc1ccccc1)NO [vorinostat] + COc1ccc(-c2ccc3c(N4CCOCC4)nc(N4C[C@@H](C)O[C@@H](C)C4)nc3n2)cc1CO [KU0063794] (first compound 0.08 µM, partner dose 0.02 µM) | 89%
C#Cc1cccc(Nc2ncnc3cc(OCCOC)c(OCCOC)cc23)c1 [erlotinib] + N#Cc1c(O)c2c(-c3ccc(-c4ccccc4O)cc3)csc2[nH]c1=O [A769662] (first compound 0.8 µM, partner dose 2 µM) | 109%
COCC[n+]1c2c(n(Cc3cnccn3)c1C)C(=O)c1ccccc1C2=O + COC(=O)c1sccc1S(=O)(=O)Nc1ccc(Nc2ccccc2)cc1OC [GSK0660] (first compound 0.0004 µM, partner dose 1 µM) | 65.6%
COCC[n+]1c2c(n(Cc3cnccn3)c1C)C(=O)c1ccccc1C2=O + Cn1cc(/C=C2\C(=O)Nc3cccnc32)c2ccccc21 [GW441756] (first compound 0.0004 µM, partner dose 0.4 µM) | 74.8%
Cn1c(Nc2ccc(C(F)(F)F)cc2)nc2cc(Oc3ccnc(-c4ncc(C(F)(F)F)[nH]4)c3)ccc21 + CCc1ccc(CCOc2ccc(CC3SC(=O)NC3=O)cc2)nc1 [pioglitazone] (first compound 0.08 µM, partner dose 2 µM) | 67.2%
COCC[n+]1c2c(n(Cc3cnccn3)c1C)C(=O)c1ccccc1C2=O + CC(C)CCN1c2nc(Nc3cc(F)c(O)c(F)c3)ncc2N(C)C(=O)C1C [BID1870] (first compound 0.0004 µM, partner dose 0.2 µM) | 97.6%
O=C(CCCCCCC(=O)Nc1ccccc1)NO [vorinostat] + CC(C)CCN1c2nc(Nc3cc(F)c(O)c(F)c3)ncc2N(C)C(=O)C1C [BID1870] (first compound 0.08 µM, partner dose 0.2 µM) | 103%
C#Cc1cccc(Nc2ncnc3cc(OCCOC)c(OCCOC)cc23)c1 [erlotinib] + O=C(O)C(=O)Nc1sc2c(c1C(=O)O)CCNC2 [TCS401] (first compound 0.8 µM, partner dose 1.66667 µM) | 93.9%
C#Cc1cccc(Nc2ncnc3cc(OCCOC)c(OCCOC)cc23)c1 [erlotinib] + COc1ccc2c(c1)CCC1C2CCC2(C)C(NCCCCCCN3C(=O)C=CC3=O)CCC12 [U73122] (first compound 0.8 µM, partner dose 0.4 µM) | 92.7%
